# From the supplement of paper PMC8728848
# This is one part of the list.
# Experiments:
# Test in all cases: glycan array binding signal (z-score within array); higher = stronger binding
# Conditions in all cases: glycan notation: IUPAC condensed, linker removed
# [1] = target: Neu5Ac(a2-3)[Neu5Ac(a2-6)]GalNAc
# How it was run: (§1)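 The binding signal is a Z-score computed within each array. Data were drawn from 3228 arrays in the Consortium for Functional Glycomics database, restricted to those with a known protein sequence. Scores were averaged over arrays of the same protein sequence at different concentrations or buffers, and over linkers, and negative values can be taken as non-binding.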
# [2] = target: Neu5Ac(a2-6)Gal
# How it was run: as §1
# [3] = target: Neu5Ac(a2-6)Gal(b1-4)Glc
# How it was run: as §1
# [4] = target: Neu5Ac(a2-6)Gal(b1-4)GlcNAc
# How it was run: as §1
# [5] = target: Neu5Ac(a2-6)Gal(b1-4)GlcNAc(b1-2)Man(a1-3)Man(b1-4)GlcNAc(b1-4)GlcNAc
# How it was run: as §1
# [6] = target: Neu5Ac(a2-6)Gal(b1-4)GlcNAc(b1-2)Man(a1-3)[Gal(b1-4)GlcNAc(b1-2)Man(a1-6)]Man(b1-4)GlcNAc(b1-4)GlcNAc
# How it was run: as §1
# [7] = target: Neu5Ac(a2-6)Gal(b1-4)GlcNAc(b1-2)Man(a1-3)[GlcNAc(b1-2)Man(a1-6)]Man(b1-4)GlcNAc(b1-4)GlcNAc
# How it was run: as §1
# [8] = target: Neu5Ac(a2-6)Gal(b1-4)GlcNAc(b1-2)Man(a1-3)[GlcNAc(b1-2)Man(b1-4)GlcNAc(b1-2)Man(a1-6)]Man(b1-4)GlcNAc(b1-4)GlcNAc
# How it was run: as §1
# [9] = target: Neu5Ac(a2-6)Gal(b1-4)GlcNAc(b1-2)Man(a1-3)[Man(a1-6)]Man(b1-4)GlcNAc(b1-4)GlcNAc
# How it was run: as §1
# [10] = target: Neu5Ac(a2-6)Gal(b1-4)GlcNAc(b1-2)Man(a1-3)[Neu5Ac(a2-6)Gal(b1-4)GlcNAc(b1-2)Man(a1-6)]Man(b1-4)GlcNAc(b1-4)GlcNAc
# How it was run: as §1
# [11] = target: Neu5Ac(a2-6)Gal(b1-4)GlcNAc(b1-2)Man(a1-6)Man(b1-4)GlcNAc(b1-4)GlcNAc
# How it was run: as §1
# [12] = target: Neu5Ac(a2-6)Gal(b1-4)GlcNAc(b1-2)Man(a1-6)[Gal(b1-4)GlcNAc(b1-2)Man(a1-3)]Man(b1-4)GlcNAc(b1-4)GlcNAc
# How it was run: as §1
# [13] = target: Neu5Ac(a2-6)Gal(b1-4)GlcNAc(b1-2)Man(a1-6)[GlcNAc(b1-2)Man(a1-3)]Man(b1-4)GlcNAc(b1-4)GlcNAc
# How it was run: as §1
# [14] = target: Neu5Ac(a2-6)Gal(b1-4)GlcNAc(b1-2)Man(a1-6)[Man(a1-3)]Man(b1-4)GlcNAc(b1-4)GlcNAc
# How it was run: as §1
# [15] = target: Neu5Ac(a2-6)Gal(b1-4)GlcNAc(b1-3)Gal(b1-3)GlcNAc
# How it was run: as §1
# [16] = target: Neu5Ac(a2-6)Gal(b1-4)GlcNAc(b1-3)Gal(b1-4)GlcNAc
# How it was run: as §1
# [17] = target: Neu5Ac(a2-6)Gal(b1-4)GlcNAc(b1-3)Gal(b1-4)GlcNAc(b1-3)Gal(b1-4)GlcNAc
# How it was run: as §1
# [18] = target: Neu5Ac(a2-6)Gal(b1-4)GlcNAc(b1-3)Gal(b1-4)[Fuc(a1-3)]GlcNAc(b1-3)Gal(b1-4)[Fuc(a1-3)]GlcNAc
# How it was run: as §1
# [19] = target: Neu5Ac(a2-6)Gal(b1-4)GlcNAc(b1-3)GalNAc
# How it was run: as §1
# [20] = target: Neu5Ac(a2-6)Gal(b1-4)GlcNAc6S
# How it was run: as §1
# [21] = target: Neu5Ac(a2-6)GalNAc
# How it was run: as §1
# [22] = target: Neu5Ac(a2-6)GalNAc(b1-4)GlcNAc
# How it was run: as §1
# [23] = target: Neu5Ac(a2-6)GlcNAc(b1-4)GlcNAc
# How it was run: as §1
# [24] = target: Neu5Ac(a2-6)GlcNAc(b1-4)GlcNAc(b1-4)GlcNAc
# How it was run: as §1
# [25] = target: Neu5Ac(a2-8)Neu5Ac
# How it was run: as §1
# [26] = target: Neu5Ac(a2-8)Neu5Ac(a2-3)Gal(b1-4)Glc
# How it was run: as §1
# [27] = target: Neu5Ac(a2-8)Neu5Ac(a2-3)[GalNAc(b1-4)]Gal(b1-4)Glc
# How it was run: as §1
# [28] = target: Neu5Ac(a2-8)Neu5Ac(a2-8)Neu5Ac
# How it was run: as §1
# [29] = target: Neu5Ac(a2-8)Neu5Ac(a2-8)Neu5Ac(a2-3)Gal(b1-4)Glc
# How it was run: as §1
# [30] = target: Neu5Ac(a2-8)Neu5Ac(a2-8)Neu5Ac(a2-3)[GalNAc(b1-4)]Gal(b1-4)Glc
# How it was run: as §1
# [31] = target: Neu5Ac(a2-8)Neu5Ac(a2-8)Neu5Ac(a2-8)Neu5Ac(a2-3)[GalNAc(b1-4)]Gal(b1-4)Glc
# How it was run: as §1
# [32] = target: Neu5Ac(b2-6)Gal(b1-4)GlcNAc
# How it was run: as §1
# [33] = target: Neu5Ac(b2-6)GalNAc
# How it was run: as §1
# [34] = target: Neu5Ac9Ac(a2-3)Gal(b1-3)GlcNAc
# How it was run: as §1
# [35] = target: Neu5Ac9Ac(a2-3)Gal(b1-4)GlcNAc
# How it was run: as §1
# [36] = target: Neu5Ac9Ac(a2-6)Gal(b1-4)GlcNAc
# How it was run: as §1
# [37] = target: Neu5Gc(a2-3)Gal(b1-3)GlcNAc
# How it was run: as §1
# [38] = target: Neu5Gc(a2-3)Gal(b1-3)[Fuc(a1-4)]GlcNAc
# How it was run: as §1
# [39] = target: Neu5Gc(a2-3)Gal(b1-4)Glc
# How it was run: as §1
# [40] = target: Neu5Gc(a2-3)Gal(b1-4)GlcNAc
# How it was run: as §1
# [41] = target: Neu5Gc(a2-3)Gal(b1-4)[Fuc(a1-3)]GlcNAc
# How it was run: as §1
# [42] = target: Neu5Gc(a2-6)Gal(b1-4)GlcNAc
# How it was run: as §1
# [43] = target: Neu5Gc(a2-6)GalNAc
# How it was run: as §1
# [44] = target: Neu5Gc(b2-6)Gal(b1-4)GlcNAc
# How it was run: as §1
binder,measurement,setting,value
"CCL2 (Coprinopsis cinerea), B3GA02 (protein) MDSPAVTLSAGNYIIYNRVLSPRGEKLALTYPGRQRTPVTVSPLDGSSEQAWILRSYDSNSNTWTISPVGSPNSQIGWGAGNVPVVLPPNNYVWTLTLTSGGYNIQDGKRTVSWSLNNATAGEEVSIGADATFSGRWVIEKV",glycan array binding signal (z-score),[1],-0.263
same,glycan array binding signal (z-score),[2],-0.289
same,glycan array binding signal (z-score),[3],-0.29
same,glycan array binding signal (z-score),[4],-0.284
same,glycan array binding signal (z-score),[5],-0.274
same,glycan array binding signal (z-score),[6],-0.276
same,glycan array binding signal (z-score),[7],-0.279
same,glycan array binding signal (z-score),[8],-0.266
same,glycan array binding signal (z-score),[9],-0.288
same,glycan array binding signal (z-score),[10],-0.248
same,glycan array binding signal (z-score),[11],-0.293
same,glycan array binding signal (z-score),[12],-0.278
same,glycan array binding signal (z-score),[13],-0.277
same,glycan array binding signal (z-score),[14],-0.294
same,glycan array binding signal (z-score),[15],-0.283
same,glycan array binding signal (z-score),[16],-0.294
same,glycan array binding signal (z-score),[17],-0.262
same,glycan array binding signal (z-score),[18],1.94
same,glycan array binding signal (z-score),[19],0.358
same,glycan array binding signal (z-score),[20],-0.205
same,glycan array binding signal (z-score),[21],-0.277
same,glycan array binding signal (z-score),[22],-0.277
same,glycan array binding signal (z-score),[23],-0.288
same,glycan array binding signal (z-score),[24],-0.293
same,glycan array binding signal (z-score),[25],-0.286
same,glycan array binding signal (z-score),[26],-0.275
same,glycan array binding signal (z-score),[27],-0.27
same,glycan array binding signal (z-score),[28],-0.276
same,glycan array binding signal (z-score),[29],-0.278
same,glycan array binding signal (z-score),[30],-0.252
same,glycan array binding signal (z-score),[31],-0.286
same,glycan array binding signal (z-score),[32],-0.233
same,glycan array binding signal (z-score),[33],-0.288
same,glycan array binding signal (z-score),[34],-0.294
same,glycan array binding signal (z-score),[35],-0.296
same,glycan array binding signal (z-score),[36],-0.274
same,glycan array binding signal (z-score),[37],-0.282
same,glycan array binding signal (z-score),[38],-0.279
same,glycan array binding signal (z-score),[39],-0.285
same,glycan array binding signal (z-score),[40],-0.298
same,glycan array binding signal (z-score),[41],2.72
same,glycan array binding signal (z-score),[42],-0.279
same,glycan array binding signal (z-score),[43],-0.282
same,glycan array binding signal (z-score),[44],-0.282
